Results reported in the BET-seq Pho4 binding data (Le et al. 2018).
Some of the results follow. These are noisy estimates, calculated here from bound and input reads.

biological target: T1, Pho4 (S. cerevisiae) (UniProt P07270); test: relative binding free energy (BET-seq); higher = weaker binding; details: reference: library average
T1 sequence: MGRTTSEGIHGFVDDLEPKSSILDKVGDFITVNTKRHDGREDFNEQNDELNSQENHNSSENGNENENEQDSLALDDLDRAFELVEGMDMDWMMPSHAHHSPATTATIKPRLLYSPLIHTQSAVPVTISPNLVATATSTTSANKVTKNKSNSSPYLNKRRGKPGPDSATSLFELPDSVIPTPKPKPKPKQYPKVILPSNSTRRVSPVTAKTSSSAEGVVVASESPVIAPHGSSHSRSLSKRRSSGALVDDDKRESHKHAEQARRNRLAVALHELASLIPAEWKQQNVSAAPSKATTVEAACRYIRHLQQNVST

| Sequence | relative binding free energy [kcal/mol] |
| --- | --- |
| TGTTGCACGTGTTGAG | -0.02 |
| TATGCCACGTGCGGGT | -0.12 |
| GAAGGCACGTGATGAT | 0.18 |
| CCGGTCACGTGTAGTT | 0.12 |
| GGTCTCACGTGGTGGT | 0.17 |
| TTTGACACGTGCACGG | -0.04 |
| TGGATCACGTGTCGGG | 0.26 |
| TCGATCACGTGCTGTT | 0.23 |
| TGATGCACGTGAGAGG | 0.13 |
| TTTGGCACGTGTGCTA | 0.02 |
| GGAGACACGTGTTAGG | 0.01 |
| TTGAGCACGTGTTTCG | -0.1 |
| TCGTGCACGTGAAGTT | 0.11 |
| GTACGCACGTGGTATT | -0.02 |
| CGAGGCACGTGTGAGG | -0.08 |
| GTCTTCACGTGGGGTC | 0.22 |
| GAATACACGTGGTGAG | 0.11 |
| TGGTACACGTGCGTCT | -0.01 |
| AAAGACACGTGGGGCG | -0.14 |
| GATGGCACGTGAGTCG | 0.22 |
| CGGTGCACGTGAGGGG | 0.17 |
| GGTGTCACGTGCGGTT | 0.15 |
| TTCGTCACGTGCAGGG | 0.02 |
| TAGGTCACGTGCATGT | 0.07 |
| TTTGGCACGTGCGTAG | -0.15 |

| Sequence | relative binding free energy [kcal/mol] |
| --- | --- |
| AGTAGCACGTGCGGCG | -0.11 |
| CAGGTCACGTGACGGG | 0.08 |
| TGGAACACGTGTGTAT | 0.03 |
| GGGTACACGTGGGGGC | 0.03 |
| AAGTGCACGTGTGGGG | 0.08 |
| TTCGGCACGTGAAAGG | 0.03 |
| TTAGACACGTGTATTT | 0.15 |
| TTGTGCACGTGAAGGG | 0.24 |
| GTTGTCACGTGGTGGG | 0.04 |
| TTGATCACGTGGCTGG | 0.14 |
| TAAATCACGTGTGAAG | 0.07 |
| AAGGCCACGTGTGAGT | -0.03 |
| GAACGCACGTGGGTGG | -0.3 |
| TTTGGCACGTGTCACG | -0.03 |
| GGTAGCACGTGTATAA | -0.01 |
| TACTTCACGTGTTAAA | 0.35 |
| ATTCTCACGTGTTTAT | 0.29 |
| TAGCTCACGTGTGGCG | 0.24 |
| TTCTACACGTGAGGGG | 0.2 |
| TTATACACGTGAGGCT | 0.26 |
| GCAGGCACGTGGGCGG | -0.45 |
| TAAAGCACGTGTTGAT | -0.1 |
| ATTGGCACGTGAGCGT | 0.09 |
| TGCGTCACGTGTGTCG | 0.07 |
| ATGAGCACGTGTAGTT | -0.05 |

| Sequence | relative binding free energy [kcal/mol] |
| --- | --- |
| AGTCGCACGTGAGGGC | 0.16 |
| TGGCGCACGTGTCGGG | -0.05 |
| TGTGTCACGTGGGAGA | 0.08 |
| TGAGGCACGTGAGTAT | 0.01 |
| TAGTTCACGTGATACG | 0.28 |
| TGCTTCACGTGTGTCA | 0.38 |
| TATTACACGTGGCAGG | 0.07 |
| TGCTTCACGTGGTTTC | 0.14 |
| TTTGTCACGTGTGGCC | 0.1 |
| TTCTTCACGTGTCGGC | 0.46 |
| CGTTGCACGTGTTTGT | 0.01 |
| GGTCACACGTGTTATG | 0.05 |
| GGTCGCACGTGTCTGT | -0.13 |
| TTGTTCACGTGAGCCG | 0.36 |
| AGGAGCACGTGGAGGC | -0.18 |
| TTGTGCACGTGCCGGA | -0.18 |
| AATGTCACGTGTCGCT | 0.14 |
| CATTGCACGTGTGATT | 0.09 |
| ATTTTCACGTGTAGTT | 0.18 |
| TCTGGCACGTGGAGGG | -0.14 |
| TTGTCCACGTGTTGGA | 0 |
| TTAGACACGTGTTCTT | -0.06 |
| TGTAGCACGTGAGATG | 0.04 |
| GTAGGCACGTGTTGTT | 0.01 |
| ATGGACACGTGGAATT | 0.18 |

| Sequence | relative binding free energy [kcal/mol] |
| --- | --- |
| TATGGCACGTGTCGAG | 0.01 |
| TATGTCACGTGTTCAA | 0.03 |
| GTGGCCACGTGTTCGG | 0.03 |
| GGTGCCACGTGGGATA | -0.15 |
| GTTGACACGTGATGAG | 0.19 |
| TGGTTCACGTGAGGAT | 0.36 |
| TTAGACACGTGTTGTG | -0.04 |
| CGGGACACGTGGTTGA | 0.03 |
| TGATCCACGTGGGTAG | -0.05 |
| AGTGTCACGTGGGCCG | -0.13 |
| TGGCTCACGTGGGAGT | 0.17 |
| CAGGTCACGTGGCGGT | -0.09 |
| AGTTTCACGTGGCGAA | 0.14 |
| GCGTTCACGTGCGTGT | 0.18 |
| ATAGGCACGTGAGTCT | -0.02 |
| ATGTACACGTGAAGTG | 0.26 |
| GATTCCACGTGATGTT | 0.43 |
| AGTAACACGTGGTGTC | -0.04 |
| GTCTTCACGTGGGTTA | 0.22 |
| TTATGCACGTGGTAGC | -0.25 |
| TTGATCACGTGGCGAG | 0.08 |
| GTGTGCACGTGCGCTG | -0.18 |
| CATGTCACGTGTGTGA | 0.08 |
| TGTCTCACGTGAATGA | 0.42 |
| AATAGCACGTGGTCGT | -0.17 |

| Sequence | relative binding free energy [kcal/mol] |
| --- | --- |
| AGGGTCACGTGATACT | 0.21 |
| GACTGCACGTGGTGGA | 0.03 |
| TTCGGCACGTGCGTGG | -0.21 |
| ATATCCACGTGGTGGG | -0.27 |
| GTTGACACGTGGGGTT | -0.03 |
| GTCTACACGTGGTGTA | 0.02 |
| CGACTCACGTGTGGGG | 0.16 |
| GAATGCACGTGTTGAG | 0.07 |
| TGATGCACGTGTTATA | 0.03 |
| GCTGCCACGTGGGGGT | -0.28 |
| CTGATCACGTGTTGAG | 0.16 |
| TGGTACACGTGTGAAT | 0.12 |
| CGAGCCACGTGTGGGG | -0.08 |
| TTTTTCACGTGGACGG | 0.36 |
| GAGATCACGTGCGTGT | 0.11 |
| GGTTGCACGTGCAATG | 0.04 |
| GTGAGCACGTGAGGTT | 0.15 |
| AAAGTCACGTGTGGAG | 0.09 |
| GGTTTCACGTGCTTTA | 0.27 |
| TGGGTCACGTGGTCTA | -0.04 |
| TATTTCACGTGGGTAT | 0.04 |
| CGGTGCACGTGGTGAG | -0.06 |
| GGTCGCACGTGTTAGA | 0.1 |
| CGAGTCACGTGGTGTT | 0.01 |
| GGTCACACGTGTAAGG | 0.1 |

| Sequence | relative binding free energy [kcal/mol] |
| --- | --- |
| TTAGACACGTGCTGTT | -0.23 |
| TATTACACGTGATGGG | 0.19 |
| TTTGACACGTGGTACT | -0.05 |
| AGTACCACGTGTGTTG | -0.01 |
| TCGGTCACGTGTGGAT | 0.19 |
| TAGTCCACGTGGTGAT | -0.02 |
| CGTTGCACGTGTTAGA | 0.11 |
| ATTTGCACGTGTTGTA | 0.03 |
| GACTGCACGTGTTGGG | 0.02 |
| AATTACACGTGTCGGT | -0.02 |
| AAGGCCACGTGAAGGG | 0.11 |
| CTTATCACGTGTGCTT | 0.17 |
| TGGTACACGTGAATAG | 0.29 |
| GTAAGCACGTGTAAGT | 0.04 |
| ATTTTCACGTGGAGAA | 0.24 |
| TCGGTCACGTGGATTG | 0.07 |
| TGCGGCACGTGCAGTT | -0.07 |
| GTTCACACGTGGTCGT | 0.11 |
| TGGGGCACGTGTTGGG | -0.03 |
| AGGGACACGTGGGTTA | -0.04 |
| TGGGACACGTGTTGTG | 0 |
